Tested on: CYP3A4
Experiment: Testosterone 6β-hydroxylase assay, bacterial membrane fractions
Type: biochemical, human
Conditions: 30 mM MgCl2, co-expressed with reductase, two plasmid system

B1: 17α-CYP3A4: CYP3A4 with N-terminal region modified according to published procedures (Gillam et al 1993) (protein)
chain: MALIPDLAMETWLLLAVSLVLLYLYGTHSHGLFKKLGIPGPTPLPFLGNILSYHKGFCMFDMECHKKYGKVWGFYDGQQPVLAITDPDMIKTVLVKECYSVFTNRRPFGPVGFMKSAISIAEDEEWKRLRSLLSPTFTSGKLKEMVPIIAQYGDVLVRNLRREAETGKPVTLKDVFGAYSMDVITSTSFGVNIDSLNNPQDPFVENTKKLLRFDFLDPFFLSITVFPFLIPILEVLNICVFPREVTNFLRKSVKRMKESRLEDTQKHRVDFLQLMIDSQNSKETESHKALSDLELVAQSIIFIFAGYETTSSVLSFIMYELATHPDVQQKLQEEIDAVLPNKAPPTYDTVLQMEYLDMVVNETLRLFPIAMRLERVCKKDVEINGMFIPKGVVVMIPSYALHRDPKYWTEPEKFLPERFSKKNKDNIDPYIYTPFGSGPRNCIGMRFALMNMKLALIRVLQNFSFKPCKETQIPLKLSLGGLLQPEKPVVLKVESRDGTVSGA
  Testosterone 6β-hydroxylase: 4.9 ± 0.3 nmol formed per minute per nmol CYP3A4

Source: patent US9255256B2, “Expression of functional cytochorome P450 monooxygenase system in enterobacteria” (priority 1996, dated 2016)
